Measurements taken from paper PMC9911399, “Two distinct binding modes provide the RNA-binding protein RbFox with extraordinary sequence specificity”.
Positions count from the first letter of the chain named. Some of the results follow.

T1: RBFOX1 RRM (Homo sapiens, UniProt Q9NWB1 109-208)
T1 sequence: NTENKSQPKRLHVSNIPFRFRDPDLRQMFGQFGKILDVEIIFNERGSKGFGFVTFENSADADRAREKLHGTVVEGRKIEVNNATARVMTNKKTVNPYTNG

B1: CUUAAAA (DNA:RNA)
RNA: GGGAGACCGGAAUUCAGAUUGUCCCUUAAAAUUAAAUCCCGUCGUAGCCACCA
DNA 1: CAATCTGAATTCCGGTCTCCC
DNA 2: TGGTGGCTACGACGGGATT
B2: CUAGUAU (DNA:RNA)
RNA: B1 RNA with U27A, A28G, A29U, A31U
DNA 1: CAATCTGAATTCCGGTCTCCC
DNA 2: TGGTGGCTACGACGGGATT
B3: CAGUUGG (DNA:RNA)
RNA: B1 RNA with U26A, U27G, A28U, A29U, A30G, A31G
DNA 1: CAATCTGAATTCCGGTCTCCC
DNA 2: TGGTGGCTACGACGGGATT
B4: ACUUUCA (DNA:RNA)
RNA: B1 RNA with C25A, U26C, A28U, A29U, A30C
DNA 1: CAATCTGAATTCCGGTCTCCC
DNA 2: TGGTGGCTACGACGGGATT
B5: AGUAAUA (DNA:RNA)
RNA: B1 RNA with C25A, U26G, A30U
DNA 1: CAATCTGAATTCCGGTCTCCC
DNA 2: TGGTGGCTACGACGGGATT
B6: UGCCAGA (DNA:RNA)
RNA: B1 RNA with C25U, U26G, U27C, A28C, A30G
DNA 1: CAATCTGAATTCCGGTCTCCC
DNA 2: TGGTGGCTACGACGGGATT
B7: AGCAACU (DNA:RNA)
RNA: B1 RNA with C25A, U26G, U27C, A30C, A31U
DNA 1: CAATCTGAATTCCGGTCTCCC
DNA 2: TGGTGGCTACGACGGGATT
B8: ACACAUC (DNA:RNA)
RNA: B1 RNA with C25A, U26C, U27A, A28C, A30U, A31C
DNA 1: CAATCTGAATTCCGGTCTCCC
DNA 2: TGGTGGCTACGACGGGATT
B9: GUUCAUC (DNA:RNA)
RNA: B1 RNA with C25G, A28C, A30U, A31C
DNA 1: CAATCTGAATTCCGGTCTCCC
DNA 2: TGGTGGCTACGACGGGATT
B10: GAACCAU (DNA:RNA)
RNA: B1 RNA with C25G, U26A, U27A, A28C, A29C, A31U
DNA 1: CAATCTGAATTCCGGTCTCCC
DNA 2: TGGTGGCTACGACGGGATT
B11: GCACGUC (DNA:RNA)
RNA: GGGAGACCGGAAUUCAGAUUGUCCGCACGUCUUAAAUCCCGUCGUAGCCACCA
DNA 1: CAATCTGAATTCCGGTCTCCC
DNA 2: TGGTGGCTACGACGGGATT
B12: ACGUGUA (DNA:RNA)
RNA: B11 RNA with G25A, A27G, C28U, C31A
DNA 1: CAATCTGAATTCCGGTCTCCC
DNA 2: TGGTGGCTACGACGGGATT
B13: GGAUAGA (DNA:RNA)
RNA: B1 RNA with C25G, U26G, U27A, A28U, A30G
DNA 1: CAATCTGAATTCCGGTCTCCC
DNA 2: TGGTGGCTACGACGGGATT
B14: ACUAGUC (DNA:RNA)
RNA: B11 RNA with G25A, A27U, C28A
DNA 1: CAATCTGAATTCCGGTCTCCC
DNA 2: TGGTGGCTACGACGGGATT
B15: UUAUUCA (DNA:RNA)
RNA: B1 RNA with C25U, U27A, A28U, A29U, A30C
DNA 1: CAATCTGAATTCCGGTCTCCC
DNA 2: TGGTGGCTACGACGGGATT
B16: UAUGAAC (DNA:RNA)
RNA: B1 RNA with C25U, U26A, A28G, A31C
DNA 1: CAATCTGAATTCCGGTCTCCC
DNA 2: TGGTGGCTACGACGGGATT
B17: ACUCGAC (DNA:RNA)
RNA: B11 RNA with G25A, A27U, U30A
DNA 1: CAATCTGAATTCCGGTCTCCC
DNA 2: TGGTGGCTACGACGGGATT
B18: GCGCAGC (DNA:RNA)
RNA: B11 RNA with A27G, G29A, U30G
DNA 1: CAATCTGAATTCCGGTCTCCC
DNA 2: TGGTGGCTACGACGGGATT
B19: UGAUGCG (DNA:RNA)
RNA: B11 RNA with G25U, C26G, C28U, U30C, C31G
DNA 1: CAATCTGAATTCCGGTCTCCC
DNA 2: TGGTGGCTACGACGGGATT
B20: CGGCUAG (DNA:RNA)
RNA: B1 RNA with U26G, U27G, A28C, A29U, A31G
DNA 1: CAATCTGAATTCCGGTCTCCC
DNA 2: TGGTGGCTACGACGGGATT
B21: AAGGGGG (DNA:RNA)
RNA: B11 RNA with G25A, C26A, A27G, C28G, U30G, C31G
DNA 1: CAATCTGAATTCCGGTCTCCC
DNA 2: TGGTGGCTACGACGGGATT
B22: AUUGUUG (DNA:RNA)
RNA: B1 RNA with C25A, A28G, A29U, A30U, A31G
DNA 1: CAATCTGAATTCCGGTCTCCC
DNA 2: TGGTGGCTACGACGGGATT
B23: UUAGGCG (DNA:RNA)
RNA: B11 RNA with G25U, C26U, C28G, U30C, C31G
DNA 1: CAATCTGAATTCCGGTCTCCC
DNA 2: TGGTGGCTACGACGGGATT
B24: GGCGGGA (DNA:RNA)
RNA: B11 RNA with C26G, A27C, C28G, U30G, C31A
DNA 1: CAATCTGAATTCCGGTCTCCC
DNA 2: TGGTGGCTACGACGGGATT
B25: UUCGCUG (DNA:RNA)
RNA: B1 RNA with C25U, U27C, A28G, A29C, A30U, A31G
DNA 1: CAATCTGAATTCCGGTCTCCC
DNA 2: TGGTGGCTACGACGGGATT
B26: AAUCCUU (DNA:RNA)
RNA: B11 RNA with G25A, C26A, A27U, G29C, C31U
DNA 1: CAATCTGAATTCCGGTCTCCC
DNA 2: TGGTGGCTACGACGGGATT
B27: AUCUACC (DNA:RNA)
RNA: B1 RNA with C25A, U27C, A28U, A30C, A31C
DNA 1: CAATCTGAATTCCGGTCTCCC
DNA 2: TGGTGGCTACGACGGGATT
B28: CUCACGA (DNA:RNA)
RNA: B1 RNA with U27C, A29C, A30G
DNA 1: CAATCTGAATTCCGGTCTCCC
DNA 2: TGGTGGCTACGACGGGATT
B29: AGUGCUG (DNA:RNA)
RNA: B1 RNA with C25A, U26G, A28G, A29C, A30U, A31G
DNA 1: CAATCTGAATTCCGGTCTCCC
DNA 2: TGGTGGCTACGACGGGATT
B30: GCAUCAA (DNA:RNA)
RNA: B11 RNA with C28U, G29C, U30A, C31A
DNA 1: CAATCTGAATTCCGGTCTCCC
DNA 2: TGGTGGCTACGACGGGATT
B31: UCCUUUA (DNA:RNA)
RNA: B11 RNA with G25U, A27C, C28U, G29U, C31A
DNA 1: CAATCTGAATTCCGGTCTCCC
DNA 2: TGGTGGCTACGACGGGATT

What follows are binders tested against T1, RBFOX1 RRM (assay: EMSA; HiTS-Eq, 1 nM pool, 10 min; buffer printed only for the single-RNA assays: 10 mM Tris pH 7.5, 150 mM NaCl, 3.4 mM EDTA, 0.001% NP-40, 30 C). Details: tags: His6 N-terminal (pET28a); label: 5' 32P.
Summary of the method: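 These values rest on relative association constants, computed from read-count changes of each RNA species versus the control reaction and normalised to the cognate motif. Reads came from free RNA recovered by 8% native PAGE after purified RbFox RRM (wild type or mutant) at increasing concentrations was equilibrated for 10 min in 50 µL with 1 nM of a 5′-radiolabelled pool with 7 randomized nucleotides and DNA-annealed flanks.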

In order of falling binding signal:
1. B11  0.0416 KA relative to UGCAUGU
2. B6  0.0215 KA relative to UGCAUGU
3. B25  0.0215 KA relative to UGCAUGU
4. B29  0.0208 KA relative to UGCAUGU
5. B19  0.0204 KA relative to UGCAUGU
6. B20  0.02 KA relative to UGCAUGU
7. B13  0.0197 KA relative to UGCAUGU
8. B22  0.0192 KA relative to UGCAUGU
9. B24  0.0172 KA relative to UGCAUGU
10. B23  0.0139 KA relative to UGCAUGU
11. B3  0.0125 KA relative to UGCAUGU
12. B18  0.0124 KA relative to UGCAUGU
13. B12  0.0121 KA relative to UGCAUGU
14. B16  0.0117 KA relative to UGCAUGU
15. B21  0.0117 KA relative to UGCAUGU
16. B9  0.00875 KA relative to UGCAUGU
17. B15  0.00837 KA relative to UGCAUGU
18. B30  0.0078 KA relative to UGCAUGU
19. B14  0.00647 KA relative to UGCAUGU
20. B17  0.00532 KA relative to UGCAUGU
21. B7  0.00504 KA relative to UGCAUGU
22. B2  0.00471 KA relative to UGCAUGU
23. B28  0.00443 KA relative to UGCAUGU
24. B4  0.00407 KA relative to UGCAUGU
25. B5  0.0038 KA relative to UGCAUGU
26. B10  0.00272 KA relative to UGCAUGU
27. B31  0.00187 KA relative to UGCAUGU
28. B1  0.00143 KA relative to UGCAUGU
29. B26  0.00132 KA relative to UGCAUGU
30. B27  0.000901 KA relative to UGCAUGU
31. B8  9.49e-05 KA relative to UGCAUGU
